Test results taken from the supplement of paper PMC10126150.
Sequences with one replicate were seen in a single cluster, so their values are uncertain.

Tested on: ATP
Test: switch fluorescence ratio, 500 uM ATP over buffer (Cy3 cluster intensity, sum of 5 cycles each) (fold (ratio)); higher = stronger signal-on switching upon ATP binding; sequences stand for … in TCGTCGGCAGCGTCAGATGTGTATAAGAGACAGTTTTTTTTTTTTTTTTTTTTTTTTT…TC
Conditions: aptamer strand: ATP DNA aptamer (quencher-CACCTGGGGGAGTATTGCGGAGGAAGG + anchor), 100 nM annealed; ATP concentration: 500 uM; one replicate
Summary of the method: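 The quencher-labelled ATP aptamer, at 100 nM, was annealed to Cy3-labelled switching-strand clusters on a modified Illumina MiSeq flow-cell. The clusters were imaged in selection buffer, then after 15 min with 500 uM ATP at 22 °C, and this buffer/ATP cycle ran five times with NaOH stripping and re-annealing between runs. Per-cluster fluorescence ratios, summed target-cycle over summed buffer-cycle Cy3 intensity, were averaged per switch-domain sequence. Clusters outside 100-1000 RFU were excluded.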
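Further: ATP exposure 15 min at 22 °C before imaging.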

| Sequence | switch fluorescence ratio |
| --- | --- |
| GCCTATGCTA | 1.06 |
| GATTGTTACT | 1.04 |
| CGTCTGCCGT | 1.01 |
| TGGATGCGGA | 1 |
| GGTGGGAAAG | 1.01 |
| ACACCACGGG | 1.27 |
| TTTTCTGATT | 1.01 |
| CACGTTTATG | 0.954 |
| GGCAGAGGTC | 0.962 |
| AGAATACGAT | 1.03 |
| GTGAATAGGC | 0.99 |
| CGGCTCGAGT | 1.01 |
| CATTTCTCGA | 1.03 |
| CCGCTTTGGG | 1.24 |
| GAGGTATCTC | 0.998 |
| ATACGATAGC | 1.1 |
| ATTGGGGTCT | 1.07 |
| ACCTAGCGCG | 1.02 |
| TGCTAATTCC | 1.08 |
| AAGGTATAGA | 0.996 |
| TCGTGCATAT | 1.08 |
| TTATTAAATT | 0.995 |
| GGGAAGATAG | 1.02 |
| GAGACGATTG | 1.03 |
| TTATAGACGC | 1.06 |

| Sequence | switch fluorescence ratio |
| --- | --- |
| CCGACCGGTC | 1.33 |
| GGTGCCAGCA | 1.02 |
| GCGCTCGTCA | 1.02 |
| TCGAATAACG | 0.989 |
| TCGGGGTTC | 0.997 |
| CCAAACATTC | 1.09 |
| TACACCGGGA | 1.16 |
| CTAAGGGTTT | 1.01 |
| AACTCGAGTG | 0.982 |
| ACATTAATAT | 1.02 |
| CAGCGAGCGG | 1.06 |
| AGTGTGCATA | 1.02 |
| AGTAAGGTGC | 1.28 |
| TGGTCTCTG | 0.982 |
| ACCATTCCGT | 1.12 |
| TATGGACCAC | 1.03 |
| TCGGCCTAGC | 1.07 |
| TTGGAATAGT | 1.05 |
| CTATCACGGA | 1 |
| ATTGACCGAG | 1 |
| CATCGTTAAT | 1.16 |
| TGAAGTTTCG | 1 |
| CACGGATCCG | 1.02 |
| TTGGTCT | 0.954 |
| TTCCAGCATA | 1.38 |

| Sequence | switch fluorescence ratio |
| --- | --- |
| GACGGGGAAC | 1.05 |
| TAGAATTGAC | 1.06 |
| TGGAGTCAG | 1.02 |
| GCTTCTAGCG | 1.03 |
| AATAGAACGA | 1.03 |
| CCATGCTCGG | 1 |
| GTGCCTATGG | 0.972 |
| CTAGATGGTC | 1.01 |
| TGCAATTTGA | 1.02 |
| CAAAGTATGG | 0.967 |
| TTAAGAATCA | 0.998 |
| ACAGCTAAGT | 1.06 |
| TTAAGGTGCC | 1.03 |
| GTTGAACAAG | 0.952 |
| GCGGGCCTG | 0.985 |
| ACGTTACCCT | 1.56 |
| GTGTTCCCAT | 0.97 |
| CAGGGAGGTA | 1.06 |
| TAATATCTAA | 0.998 |
| ATAAAAGGGT | 0.98 |
| AAATGCGATC | 1.12 |
| TCCAGACGGG | 1.01 |
| CGCTTTGGCC | 1.04 |
| TGTGAAGCCC | 0.973 |
| CTAAAAGT | 0.984 |

| Sequence | switch fluorescence ratio |
| --- | --- |
| GAAGTACATA | 1.27 |
| GCTTGAAAGT | 1.01 |
| TTAGCAGGCG | 0.984 |
| TGTGTTGAGT | 0.953 |
| CCGCTATCCT | 4.55 |
| TTTTCCTTTG | 1.06 |
| CAGTGCAGGG | 0.993 |
| AGGAAACTTG | 1 |
| AGATGGGTTG | 0.931 |
| GCGGGTTAAC | 1.01 |
| TCTGAAGAG | 0.984 |
| AGCGAATCGC | 1.04 |
| ACACGGATGC | 1 |
| CGGCGCTTTA | 1.15 |
| TGCCATTTAC | 1.17 |
| CTGAAAGGAG | 0.961 |
| TTAGGCTATT | 0.951 |
| TCGGCCCATA | 1.08 |
| GCACCAAAGG | 1.05 |
| CGGATTGGCC | 0.989 |
| TAATCGGCCA | 1.06 |
| GCATTATGGA | 1.03 |
| TAATGAAGGT | 0.966 |
| GTTGGTCGGA | 0.973 |
| ACGGTCATTC | 1.02 |

| Sequence | switch fluorescence ratio |
| --- | --- |
| CGGTGATGTA | 1.33 |
| ATGTATTTCT | 1.05 |
| CGACACTCAT | 1.04 |
| TGGTACAAGC | 0.986 |
| GGATAACACT | 1.06 |
| GGGGTCGAAC | 0.953 |
| GTTACTGGGC | 1.09 |
| ACCTGGTTGA | 1.03 |
| CCATTTGGAT | 0.976 |
| TTTATCTCTG | 1.04 |
| CGTCAGTCTG | 1.02 |
| CGATTGTTCC | 1.07 |
| AAAATTGCCC | 0.963 |
| CGTGACACCT | 1.04 |
| TACTTGCTCC | 1.57 |
| CCGATCTAAC | 2.89 |
| GACTGTTCTT | 0.992 |
| TAGTTTCAGG | 0.973 |
| AGAAACAGGT | 0.992 |
| GGCCCGGACG | 1.02 |
| CTTATTTCGC | 1.04 |
| ATAGGCGATT | 1.02 |
| TATTAAATGG | 1.06 |
| GACGTCCGAG | 0.999 |
| CGGTCTAATG | 0.932 |

| Sequence | switch fluorescence ratio |
| --- | --- |
| ATGACTGAAA | 1.03 |
| TTCTAAGAAC | 1.07 |
| GCATCGTATC | 1.16 |
| TTACGCCTTG | 0.955 |
| ACGAGTTTCT | 1.04 |
| TCTCAATAGC | 1.22 |
| GTCGGCCAGC | 1 |
| CGGGGTAGTA | 0.972 |
| CAGCAGGGTT | 1.02 |
| TACGGGGATT | 1 |
| GATGAAGATC | 1 |
| CCCCCTAAAT | 1.88 |
| TCCGACCGCT | 1.01 |
| ATCCTAGAAT | 0.97 |
| TAACTACTGC | 0.98 |
| CGCATCGGGT | 1 |
| AGTATACCTT | 1.1 |
| CGGGCTTCCC | 1.01 |
| CTGTTACGGT | 1.02 |
| ATGAACCATA | 0.996 |
| CAGACAAAC | 1.2 |
| GTCATGGCCA | 1.01 |
| TATCTGTTGC | 0.991 |
| CGTCTTTC | 1.02 |
| TTCGAGTGGT | 0.977 |

| Sequence | switch fluorescence ratio |
| --- | --- |
| TACTGGGAT | 1.02 |
| GCCTGCACTT | 0.971 |
| AGCGTACCC | 1.03 |
| ACAGGCAGTT | 0.993 |
| GGCGTGAGAA | 1.01 |
| ACTGGTTTAC | 1.04 |
| TCACTTTCAA | 1.05 |
| AGCTCAACAT | 1.02 |
| TGATGGCA | 1.06 |
| GGAATAAGGC | 1.07 |
| AGGACATGCA | 1.05 |
| TCAGAAAGGT | 0.987 |
| CGTTATACA | 1.02 |
| TGAAATCGAC | 1.06 |
| GTTACCTTGG | 1.01 |
| TACACATTCG | 0.978 |
| TAGAGCTTCG | 1.06 |
| AAAACGGTGG | 0.99 |
| GAAGTCAGGT | 1 |
| ATGGCGTGCA | 1.02 |
| TACCGGTTAC | 1.21 |
| AGTCAGGGAC | 1 |
| TTGGACTTTT | 0.969 |
| TTCGTATTAA | 0.995 |
| GCACTGGATG | 1.09 |

| Sequence | switch fluorescence ratio |
| --- | --- |
| CATCAATGGC | 1.08 |
| GTTTATGAAG | 0.959 |
| GCGAAGATGC | 1.08 |
| TCTTACTCTC | 1.12 |
| AATCATTTGT | 1 |
| AAGACCGAGT | 0.987 |
| TATTATGATG | 1.02 |
| CGCAGTTTCG | 1.07 |
| GACAGTTGTT | 1.02 |
| AAAGCGCTAG | 0.987 |
| TGCGCGACGT | 1.02 |
| ACGCACCATC | 1.54 |
| GCGACGGGA | 1.39 |
| TCCTAACGTA | 1.18 |
| TGTCGACCTT | 1.07 |
| GCTTAAGACG | 0.958 |
| CGCCGTAGTG | 1.01 |
| GCCAAGACAT | 0.998 |
| AGGTTCACGA | 1.03 |
| CTGAGATTGT | 0.993 |
| ACCATGTCCG | 0.978 |
| GGGTCAGCCT | 1.02 |
| CGACGGAGGG | 1.04 |
| ACGTCATGGT | 1.14 |
| GTTGACAAAA | 1 |
